# Assay results: PubChem BioAssay AID1745853 (National Center for Advancing Translational Sciences (NCATS), 2022)
# Several values for one entry are separate records, joined by “and”; a condition that tells them apart may be missing. Equal entries are not always repeated. The list shows a part of the results. Shown are side measurements of this screen, not its main read-out; they come without a call. Square brackets hold non-standard residues; d marks the D form. Peptide text beside a SMILES is read from it. ξ: configuration not given here. ξPhe(βξ-Me) = CC(c1ccccc1)C(N)C(=O)O; GABA = NCCCC(=O)O
# What was measured:
# Test in all cases: Primary Screen for Target Class Profiling of Small Molecule Inhibitors of Methyltransferases
# [1] = target: Glycine N-methyltransferase (Homo sapiens) (UniProt Q14749); conditions: purified enzyme, MTase-Glo SAH luminescence; measured here: GNMT inhibition; at 40 µM; stronger effect = lower value
# Method in brief: (§1)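 Each enzyme was reacted with SAM and its substrate, with compounds tested once at 40 uM; SAH formed was read by MTase-Glo luminescence.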
# [2] = target: Guanidinoacetate N-methyltransferase (Homo sapiens) (UniProt Q14353); conditions: purified enzyme, MTase-Glo SAH luminescence; measured here: GAMT inhibition; at 40 µM; stronger effect = lower value
# Method in brief: as §1
# [3] = target: Histamine N-methyltransferase (Homo sapiens) (UniProt P50135); conditions: purified enzyme, MTase-Glo SAH luminescence; measured here: HNMT inhibition; at 40 µM; stronger effect = lower value
# Method in brief: as §1
# [4] = target: Nicotinamide N-methyltransferase (Homo sapiens) (UniProt P40261); conditions: purified enzyme, MTase-Glo SAH luminescence; measured here: NNMT inhibition; at 40 µM; stronger effect = lower value
# Method in brief: as §1
# [5] = target: Phenylethanolamine N-methyltransferase (Homo sapiens) (UniProt P11086); conditions: purified enzyme, MTase-Glo SAH luminescence; measured here: PNMT inhibition; at 40 µM; stronger effect = lower value
# Method in brief: as §1
# % is scaled to controls: 0 for no effect and ±100 for the full control effect.
SMILES,"activity change, negative = inhibition [1]","activity change, negative = inhibition [2]","activity change, negative = inhibition [3]","activity change, negative = inhibition [4]","activity change, negative = inhibition [5]"
CCOC(=O)c1ccc2c(c1)[C@@H]1C=CC[C@@H]1[C@H](c1cccc(Cl)c1)N2,-10.7%,-1.09%,-13.3%,-8.93%,-15.8%
O=C1CCCCC(CNC(=O)c2ccc3ccccc3n2)N1 (stereo not drawn),-8.41%,-8.36%,-4.28%,-12.6%,-10.1%
COc1ccc(C)cc1NS(=O)(=O)c1ccc2c(c1)n(C)c(=O)n2C,3.95%,0%,7%,6.77%,1.75%
C/C=C/C=C/C=C/C(=O)O[C@@H]1C=C(CO)[C@](O)(CO)[C@@]2(C)CCCC(C)(C)[C@H]12,0%,1.69%,0.102%,-11.4%,4.13%
CN1CCCC1c1nc(C2CN(S(=O)(=O)Cc3ccccc3F)C2)no1 (stereo not drawn),-5.85%,-9.45%,-4.61%,-16.1%,-9.46%
Cc1ccc(CSc2nnc3n(CC(C)C)c(=O)c4cc(F)ccc4n23)cc1,4.27%,4.76%,8.18%,1.05%,2.36%
CCN1CCN(C(=O)Cn2c(=O)oc3cc(S(=O)(=O)N4CC(C)CC(C)C4)ccc32)CC1 (stereo not drawn),3.25%,5.58%,4.65%,13.9%,1.5%
O=C(c1cc[nH]c1C1CCCNC1)N(Cc1ccc(F)cc1)Cc1cccnc1 (stereo not drawn),-5.92%,-7.99%,-35.1%,-17.3%,6.64%
Cc1ccc(Cl)cc1NC(=O)Cn1nc2n(CCC(C)C)c(=O)c3ccccc3n2c1=O,1.61%,-1.26%,1.34%,-0.091%,-0.632%
O=c1n(CC2CC2)nc2n1CCN(S(=O)(=O)Cc1ccccc1)CC2,-3.79%,-6.08%,-2.82%,-6.51%,-12%
COc1ccc(CC(=O)N[C@H](C)c2onc(C)c2C(=O)O)cc1,-0.218%,-2.72%,-1.21%,-3.68%,-3.94%
COc1ccc(OC)c(S(=O)(=O)Nc2ccc3c(c2)n(C)c(=O)n3C)c1,12.9%,1.79%,5.04%,1.98%,-4.48%
O=C1C(SCCO)=C(SCCO)C(=O)c2ccccc21,-83.2%,-16.3%,-9.09%,-12.9%,-71.1%
CNC(=O)Oc1ccc2c(c1)[C@]1(C)CCN(C)[C@@H]1N2C,3.71% and 5.88%,1.07% and 10.6%,5.56% and 12.9%,-12.5% and -8.1%,4.82% and -2.63%
CCOc1ccc(CN2C(=O)c3cc(C(=O)OC)nn3CC2(C)C(=O)NC2CCCCC2)cc1 (stereo not drawn),-0.204%,0%,3.02%,4.56%,-0.835%
CC[C@H]1CN(Cc2ccc(OC)cc2O)CC[C@H]1CC(=O)N1CCOCC1,-0.011%,1.52%,-4.11%,-2.33%,0.259%
CC(=O)OCC1(O)CCC2C(COC3OC(CO)C(O)C(O)C3OC(=O)/C=C/c3ccc(O)cc3)=COC(OC(=O)CC(C)C)C21 (stereo not drawn),0%,1.87%,6.36%,-10.7%,4.66%
CC(C)OCCCn1c(=O)c2ccccc2n2c(SCC(=O)Nc3ccc(F)cc3F)nnc12,-1.5%,0%,2.96%,-6.34%,1.68%
COc1ccc(-c2cc(=O)oc3cc(OCC(=O)Nc4ccc5c(c4)OCO5)ccc23)cc1,-3.58%,0%,4.06%,-0.648%,-1.36%

SMILES,"activity change, negative = inhibition [1]","activity change, negative = inhibition [2]","activity change, negative = inhibition [3]","activity change, negative = inhibition [4]","activity change, negative = inhibition [5]"
CCOc1ccccc1CN1CCC2(CCN(C(=O)c3ccccc3C)CC2)Oc2ccccc21,-6.3%,-7%,-4.62%,-20.6%,-11%
CC1CCN(S(=O)(=O)c2ccc3c(ccn3CC(=O)NC3CCCC3)c2)CC1,2.52%,4.67%,6.52%,-0.587%,2.18%
CCCNC(=O)N1Cc2c(sc3c2CCCC3)-n2cccc2C1c1ccc(Cl)cc1 (stereo not drawn),1.33%,0%,4.61%,1.06%,3.56%
C[C@@H](NC(=O)C(=O)c1c[nH]c2ccc([N+](=O)[O-])cc12)c1ccccc1,2.29%,-4.92%,2.59%,-16.7%,-2.88%
Cc1ccccc1CN1CC(=O)N(Cc2ccccc2)c2ccccc2S1(=O)=O,1.4%,7.1%,-3.89%,-3.59%,-2.54%
CSCC(=O)N[C@H]1CCN2C(=O)c3cc(-c4ccc(Cl)cc4)ccc3NC(=O)[C@H]12,-14.7%,-30.2%,-11.2%,-16.7%,-16%
CCN1C(=O)c2cc(C(=O)NCCN3CCCCC3)nn2CC1(C)C(=O)NC1CCCC1 (stereo not drawn),9.01%,2.73%,8.05%,10.1%,6.07%
Cc1ccc(CNC(=O)N2CCCC3(CCC(=O)N(CC4CC4)C3)C2)cc1 (stereo not drawn),-0.731%,-3.5%,-0.229%,-4.16%,-3.72%
Cc1cccc(Cn2nc3n(CC(C)C)c(=O)c4ccc(C(=O)NCC(C)C)cc4n3c2=O)c1,2.84%,0.519%,1.06%,-2.66%,2.9%
CCc1cccc(N2C(=O)c3cc(-c4ccc(OC)cc4)nn3CC2(C)C(=O)NCc2ccccc2)c1 (stereo not drawn),4.75%,0.438%,11.2%,11.8%,3.15%
CCN(CCCNC(=O)CCc1nnc2n(CCC(C)C)c(=O)c3ccccc3n12)c1cccc(C)c1,-9.62%,4.02%,-3.02%,-16.5%,-4.04%
CC1NC(=O)CCCNC(=O)C(Cc2c[nH]c3ccccc23)NC(=O)C(C)NC(=O)C(C(C)C)NC(=O)C(C(C)c2ccccc2)NC(=O)C(C(C)C)NC1=O (stereo not drawn) (cyclo([GABA]AV[ξPhe(βξ-Me)]VAW); configuration not given here),-2.34%,-4.33%,6.76%,-17.5%,-12.2%
Cc1ccc(Cn2c(=O)c3ccccc3n3c(CCC(=O)N4CCN(c5ccccn5)CC4)nnc23)cc1,-16.6%,0%,-3.17%,-5.47%,-3.36%
CC(C)CN(C[C@@H](O)[C@H](Cc1ccccc1)NC(=O)O[C@H]1CO[C@H]2OCC[C@H]21)S(=O)(=O)c1ccc(N)cc1,–,-3.6%,–,-14.2%,-7.75%
CC1(C(=O)NC2CCCCCCC2)Cn2c(ccc2-c2ccccc2)C(=O)N1CCc1cccs1 (stereo not drawn),-0.167%,0%,6.38%,1.13%,4.65%
CCc1cc2c(cc3n2CC(C)(C(=O)NC2CCCCC2)N(C2CCCCCC2)C3=O)s1 (stereo not drawn),-1.19%,5.47%,0.909%,5.49%,-1.24%
O=C(NCCCN1CCc2ccccc2C1)C1CCCCC(=O)N1Cc1ccccc1 (stereo not drawn),-6.46%,-1.3%,-6.97%,-0.621%,-9.4%
O=C(CCCc1nnc2n3nc(-c4ccccc4)nc3c3ccccc3n12)N1CC=C(c2ccccc2)CC1,-13.6%,2.73%,-7.21%,-5%,-11.8%
